# Experimental data: PubChem BioAssay AID602340 (Broad Institute, 2012)
# The whole screen tested about 330,000 compounds, of which about 2,600 (0.79%) were called active. Inconclusive results, whose numbers are uncertain, are shown with a selection of clear calls.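 The calls were made as follows: active = mean ATP rescue above about 67%, or every replicate alone reaching that limit (limit read from the data, passing the limit was not always enough); inconclusive = no clear call, values can overlap the other calls; inactive = mean under the limit and some replicate under it.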
# Assay: suppressors of statin myotoxicity in C2C12 myotubes, primary screen, cell-based, single point, plate reader (AID 602340);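 also: myotubes were challenged with 10 µM simvastatin during compound exposure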
# Conditions: C2C12 myotubes + simvastatin, ATP luminescence, 48 h; at 7.49 µM; active compounds read high; scaled: DMSO 0, geranylgeraniol control 100
row,SMILES,rescue of ATP level
1,O=C(NC1CCCCC1)c1nn2c(C(F)(F)F)cc(-c3ccco3)nc2c1Br,inconclusive: 68.6%
2,C=CCN=C1N[C@@H](c2ccccc2)C(C(=O)OC)=C(C)N1CCOC,inactive: 3.88%
3,Cc1ccc(C(C(=O)NC2CCCC2)N(C(=O)Cc2cccs2)c2ccc3c(c2)OCCO3)cc1 (centres undefined),active: 106%
4,CCOC(=O)C1CCCN(CC(=O)Nc2cc(C)cc(C)c2)C1 (centres undefined),inconclusive: 10.1%
5,O=C(CN(C(=O)Cn1nnc(-c2ccc(F)cc2)n1)C1CCCC1)NC1CCCC1,inconclusive: 79%
6,C[C@@H]1CCCCO[C@@H](CN(C)Cc2ccc(Cl)c(Cl)c2)[C@@H](C)CN([C@H](C)CO)C(=O)c2cc(NC(=O)Cc3ccccc3)ccc2O1,inconclusive: 79.7%
7,Cc1ccccc1C(=O)NCc1nnc(SCC(=O)N2CCN(c3ccccc3)CC2)n1C,active: 101%
8,CCN1CCN(c2cc(C)c3cc(NC(=S)N(C)Cc4ccccc4)ccc3n2)CC1,inconclusive: 1.7%
9,CCOC(=O)C1=C(C)N=c2s/c(=C/c3ccc(OCC(=O)O)cc3)c(=O)n2C1c1cc(OC)c(OC)c(OC)c1 (centres undefined),inactive: -1.21%
10,CSC1=NSC2=NC(=O)/C(=C\c3cccs3)C(=N)N12,inconclusive: 75.3%
11,C[C@H]1CN([C@@H](C)CO)C(=O)Cc2cc(NC(=O)Nc3ccc4c(c3)OCO4)ccc2O[C@@H]1CN(C)Cc1ccc(Cl)c(Cl)c1,inconclusive: 74.7%
12,C[C@@H]1CN([C@@H](C)CO)C(=O)c2cccc(NC(=O)c3ccc(-c4nccs4)cc3)c2O[C@@H]1CN(C)C(=O)Nc1cccc2ccccc12,inconclusive: 71.7%
13,COc1ccc(NC(=O)N(C)C[C@@H]2OCCCC[C@@H](C)Oc3ccc(NS(=O)(=O)c4c(C)noc4C)cc3C(=O)N([C@H](C)CO)C[C@H]2C)cc1,inconclusive: 68.5%
14,NC(=O)C1CCN(c2nc(C3CC3)nc3c2nnn3Cc2ccccc2Cl)CC1,inconclusive: 74.7%
15,C[C@@H]1CN([C@H](C)CO)C(=O)c2cc(NC(=O)Nc3ccc(C(F)(F)F)cc3)ccc2O[C@@H]1CN(C)Cc1ccc(C(=O)Nc2ccccc2N)cc1,active: 113%
16,C[C@H]1CCCCO[C@H](CN(C)CC2CCCCC2)[C@@H](C)CN([C@@H](C)CO)C(=O)c2cc(NC(=O)Nc3ccc4c(c3)OCO4)ccc2O1,inconclusive: 65.8%
17,O=C(CCCCCn1c(=O)[nH]c2ccsc2c1=O)NCc1ccc(F)cc1,active: 120%
18,O=S1(=O)CCN2C(Cc3ccc(SC(F)F)cc3)=CSC2=N1,inconclusive: 67.2%
19,Cc1c(C(C)(C)O)[nH]c2ccc(C#N)cc12,active: 81.3%
20,Cc1ccc(S(=O)(=O)ON=C2CCN(S(=O)(=O)c3ccccc3)CC2)cc1,inactive: -20.4%
21,C[C@H](CO)N1C[C@H](C)[C@@H](CN(C)C(=O)Nc2ccc(C(F)(F)F)cc2)OCCCC[C@H](C)Oc2ccc(NC(=O)Nc3cccc4ccccc34)cc2C1=O,inconclusive: 74.8%
22,CCOc1ccc(N2C(=O)C3Sc4[nH]c(=O)sc4C(c4ccc(OC)c(OC)c4)C3C2=O)cc1 (centres undefined),inconclusive: -3.15%

row,SMILES,rescue of ATP level
1,COC(=O)c1ccccc1NC(=O)Cn1c(CCC(=O)O)ccc1-c1cccs1,inconclusive: 65.7%
2,O=C(NC1CCCCC1)C1CC(=O)N(CCc2ccccc2)C1 (centres undefined),inconclusive: 68.8%
3,Cc1ccc(S(=O)(=O)N2C[C@H](O)COC[C@H]3O[C@@H](CC(=O)N[C@@H]4CCN(Cc5ccccc5)C4)CC[C@@H]32)cc1,inactive: -4.81%
4,C(=N\c1nccs1)/Nc1nccs1,active: 98.1%
5,O=C(NCc1ccccc1)c1cc(S(=O)(=O)N2CCCCC2)ccc1N1CCOCC1,inconclusive: 3.94%
6,O=C(CSc1nnc(-c2ccccc2Br)o1)Nc1nncs1,inactive: -5.9%
7,O=[N+]([O-])c1cccc(-c2csc(N/N=C/c3cccc(O)c3)n2)c1,inactive: -19.6%
8,CCCC(=O)Nc1ccc2c(c1)C(=O)N(C)C[C@H](OC)[C@@H](C)CN(C(=O)c1cccnc1)[C@H](C)CO2,inactive: 2.34%
9,CCc1c(C)sc(NC(=O)c2ccco2)c1C(=O)N1CCCCC1,active: 116%
10,COc1ccc(NC(=O)Nc2cccc3c2O[C@@H](CN(C)Cc2ccc(Oc4ccccc4)cc2)[C@@H](C)CN([C@H](C)CO)C3=O)cc1,inconclusive: 95.1%
11,N#Cc1nc(NCC(F)F)nc(Nc2cc(F)cc(F)c2)n1,inconclusive: 69.2%
12,C[C@H](CO)N1C[C@H](C)[C@@H](CN(C)Cc2ccc(C(=O)Nc3ccccc3N)cc2)Oc2ccc(NC(=O)Nc3ccc4c(c3)OCO4)cc2CC1=O,inconclusive: 72.5%
13,O=C(c1ccccc1)c1nn(-c2ccccc2)c(=O)cc1C(F)(F)F,inactive: 19.2%
14,C=CCn1c(=O)c2c3c(sc2n2c(Nc4ccc(OC)cc4)nnc12)CCCC3,inconclusive: 65.5%
15,COc1ccc(S(=O)(=O)Nc2ccc3c(c2)CC(=O)N([C@H](C)CO)C[C@H](C)[C@@H](CN(C)Cc2ccc(Oc4ccccc4)cc2)O3)cc1,inconclusive: 66.5%
16,C[C@@H]1CN([C@@H](C)CO)C(=O)c2cc(NC(=O)Nc3ccc(C(F)(F)F)cc3)ccc2O[C@@H]1CN(C)Cc1ccc(C(=O)Nc2ccccc2N)cc1,active: 72%
17,C[C@@H]1CN([C@H](C)CO)C(=O)Cc2cc(NC(=O)Cc3cn(C)c4ccccc34)ccc2O[C@H]1CN(C)Cc1ccc(Cl)c(Cl)c1,active: 94.9%
18,COc1cccc(-c2nc(N3CCN(C)CC3)c3ccccc3n2)c1O,inconclusive: 71.1%
19,C[C@@H]1CN([C@H](C)CO)C(=O)Cc2cc(NC(=O)Cc3cn(C)c4ccccc34)ccc2O[C@H]1CN(C)Cc1ccc(C(F)(F)F)cc1,inconclusive: 68.9%
20,Cc1nc2c(OCc3cc(Cl)cc(Cl)c3)cccn2c1N(C)C(=O)CCC1CCCC1,inconclusive: 65.4%
21,CC(=O)Oc1ccc2ccccc2c1C(NC(=O)Cc1ccccc1)c1ccccc1 (centres undefined),inconclusive: 87.3%
22,COc1ccc(C2(C)NC(=O)N(CC(=O)Nc3ccc(C)cc3Br)C2=O)cc1OC (centres undefined),inconclusive: 65.4%
